Source: paper PMC4336329 (PLoS ONE, 2015)
About 14,000 (4.5%) of roughly 310,000 compounds showed an effect of 50% or more. The effect is printed as a negative number. The list shows a part of the results.

biological target: human ether-à-go-go-related gene (hERG) potassium channel (human, UniProt Q12809); assay: primary screen, population patch clamp on CHO cells stably expressing hERG
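Further: peak tail current of the secondary pulse compared with the same well before compound.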

Sequence of human ether-à-go-go-related gene (hERG) potassium channel (Q12809 whole entry, looked up): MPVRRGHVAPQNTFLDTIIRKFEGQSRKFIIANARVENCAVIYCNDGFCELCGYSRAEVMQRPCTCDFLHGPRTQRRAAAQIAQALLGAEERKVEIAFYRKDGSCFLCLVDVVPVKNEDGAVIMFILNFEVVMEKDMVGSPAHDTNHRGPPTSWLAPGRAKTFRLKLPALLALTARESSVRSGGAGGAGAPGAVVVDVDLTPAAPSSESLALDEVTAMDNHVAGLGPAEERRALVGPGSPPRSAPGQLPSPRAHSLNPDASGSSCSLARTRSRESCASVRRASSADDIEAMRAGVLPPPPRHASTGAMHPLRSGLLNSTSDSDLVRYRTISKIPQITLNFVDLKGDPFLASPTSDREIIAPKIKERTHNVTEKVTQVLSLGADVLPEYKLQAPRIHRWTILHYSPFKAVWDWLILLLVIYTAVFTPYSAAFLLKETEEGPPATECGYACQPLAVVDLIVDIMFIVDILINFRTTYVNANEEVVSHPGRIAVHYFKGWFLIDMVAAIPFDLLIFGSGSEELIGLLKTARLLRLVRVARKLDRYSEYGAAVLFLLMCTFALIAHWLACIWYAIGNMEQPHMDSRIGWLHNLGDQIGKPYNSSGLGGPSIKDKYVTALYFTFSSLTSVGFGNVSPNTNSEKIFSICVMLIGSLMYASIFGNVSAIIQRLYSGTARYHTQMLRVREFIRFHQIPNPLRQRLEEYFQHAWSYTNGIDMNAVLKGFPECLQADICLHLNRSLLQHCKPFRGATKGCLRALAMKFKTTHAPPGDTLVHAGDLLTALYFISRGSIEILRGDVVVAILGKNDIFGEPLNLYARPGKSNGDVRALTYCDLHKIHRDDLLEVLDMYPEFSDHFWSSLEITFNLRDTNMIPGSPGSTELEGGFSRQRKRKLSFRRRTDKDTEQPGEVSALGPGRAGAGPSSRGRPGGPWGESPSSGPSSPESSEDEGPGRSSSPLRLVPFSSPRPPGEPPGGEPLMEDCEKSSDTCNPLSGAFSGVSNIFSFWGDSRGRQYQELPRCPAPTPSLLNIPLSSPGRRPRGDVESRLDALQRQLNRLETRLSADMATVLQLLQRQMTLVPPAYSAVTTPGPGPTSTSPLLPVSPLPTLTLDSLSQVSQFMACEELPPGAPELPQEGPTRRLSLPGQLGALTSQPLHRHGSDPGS

SMILES | hERG current change (%, negative = inhibition) at 10uM
COc1ccc(CN2CCN(C(c3ccc(F)cc3)c3ccc(F)cc3)CC2)c(OC)c1OC.Cl | -13.3%
CCOc1ccc(N=C2Sc3nc4ccc(C)cc4cc3CN2CCOC)cc1 | 41.4%
C/C(=N\NC(=O)C1CCCN(S(=O)(=O)c2ccccc2)C1)c1ccccn1 (centres unmarked) | -20.8%
Fc1ccc(-c2nc3ccccn3c2NCc2ccc3c(c2)OCO3)cc1 | -24.3%
CC(C)CCNC(=O)C1(c2cccs2)CCOCC1 | 6.48%
Cc1ccc(CNC(=O)CSc2nccn(-c3ccc(C)c(F)c3)c2=O)cc1 | 0.718%
COC(=O)c1ccccc1NC(=O)NC1CCCCC1 | 5.86%
COc1cccc(/C=N/Nc2cc(Cl)nc(C)n2)c1O | 20.8%
CCOC(=O)c1cnn(-c2cc(C)nc3c(-c4ccccc4)cnn23)c1N | -18%
CC(C)OP(=O)(OC(C)C)C(NC(=O)c1ccc(Br)cc1)c1ccccc1 (centres unmarked) | -35.8%
Cc1ccc(NC(=O)C(C)OC(=O)CCC2CCCCC2)cc1 (centres unmarked) | -12.6%
COc1ccccc1N=Nc1nc(-c2ccccc2)c(-c2ccccc2)[nH]1 | -1.04%
COc1cccc(N(C(=O)CNC(=O)c2ccco2)C(C(=O)NC2CCCC2)c2ccncc2)c1 (centres unmarked) | 5.05%
CCOC(=O)Cc1csc(SCC(=O)NC2CCS(=O)(=O)C2)n1 (centres unmarked) | 15.2%
C=Cc1ccc(COC(=O)c2cn(CC)c3nc(C)ccc3c2=O)cc1 | -45.4%
C[C@H]1CN=C(N(C)C)N1CCCCc1ccccc1 | -25.5%
COc1cc(Cl)c(C)cc1NC(=O)CCCn1c(=O)oc2ccccc21 | -58.7%
COC(=O)c1sccc1NC(=O)COc1ccc(Cl)cc1Cl | 5.48%
CC(C)c1nnc(NC(=O)CS(=O)(=O)c2ccccc2)s1 | 13.1%
COc1ccc(C(=O)Nc2nnc(CC(=O)N/N=C/c3ccc(O)cc3O)s2)cc1 | 14%
CCOc1ccc2nc(NCCCNS(=O)(=O)c3ccccc3)c(C#N)cc2c1 | -19.2%
CCN(Cc1ccncc1)C(=O)CCc1ccccc1 | 6.16%
O=C(NCc1ccc(Cl)cc1)c1ccc(Cl)cc1[N+](=O)[O-] | 0.453%

SMILES | hERG current change (%, negative = inhibition) at 10uM
CC1(C)Cc2c(C#N)c(NCCCO)nc(-c3ccccc3)c2CO1 | -56%
COc1cc(C(=O)Nc2ccc(OCC(=O)O)cc2)cc(OC)c1OC | 17.8%
O=C(C1COc2ccccc2O1)N1CCN(Cc2ccc3c(c2)OCO3)CC1 (centres unmarked) | -36.7%
CC(=O)c1ccc(Sc2ccccn2)c([N+](=O)[O-])c1 | 2.26%
COc1cccc(-c2cc(C(F)(F)F)n3nc(C(=O)N4CCCCC4c4cccnc4)cc3n2)c1 (centres unmarked) | -23.1%
O=C(COC(=O)CCN1C(=O)c2ccccc2C1=O)Nc1ccc(S(=O)(=O)N2CCCC2)cc1 | -21.9%
O=[N+]([O-])c1ncccc1Oc1nc(-c2cccnc2)nc2ccccc12 | 15.3%
Cc1ccc(N2CC(C(=O)N3CCCCC3)CC2=O)cc1C (centres unmarked) | -21.2%
CC1CCCC(C)N1C(=O)COC(=O)C1CCN(S(=O)(=O)c2c(Cl)cccc2Cl)CC1 (centres unmarked) | -30.1%
Cc1cc(OCC(=O)Nc2ccncc2)cc(C)c1Cl | 6.51%
O=C(Nc1cccc(NC(=O)C2CCCO2)c1)c1ccco1 (centres unmarked) | 24.2%
COc1ccc(Oc2c(C)oc3c(CN4CCOCC4)c(O)ccc3c2=O)cc1 | 11.5%
CC(=O)N[C@@H]1c2c(ccc3ccccc23)OC[C@@H]1COC(C)=O | -41.8%
CSc1nc2ccccc2n1Cc1c(Cl)cccc1Cl | 4.46%
CCOP(=O)(OCC)c1nc(/C=C/c2ccccc2)oc1NCc1ccccc1 | 5.07%
COc1ccc(OC)c(CN(CCN2CCOCC2)C(=O)Nc2cccc(Cl)c2)c1 | -22%
O=C(COCc1cc(-c2ccc3c(c2)OCO3)on1)N1CCCCC1 | 4.66%
C=CCn1cc(C(=O)OC)c(=O)c2cc(S(=O)(=O)N(CC)CC)ccc21 | -7.93%
Cc1ccc(O)c(C(=O)CC(=O)c2ccccc2Cl)c1 | 36.2%
COC(=O)C1=C(C)Nc2nc3ccccc3n2C1c1ccccc1F (centres unmarked) | 10.9%
O=C(CCn1c(=O)oc2ccccc21)n1c(=O)oc2ccccc21 | 20.7%
Cc1cccc(-n2nnnc2SCC(=O)c2cc(C)n(Cc3ccco3)c2C)c1 | -11.3%
COc1ccc(C)c2sc(N(CCN(C)C)C(=O)/C=C/c3cccs3)nc12.Cl | 5.89%

SMILES | hERG current change (%, negative = inhibition) at 10uM
C=C(C)c1cccc(C(C)(C)NC(=O)N2CCN(CC)CC2)c1 | 7.13%
Cc1ccnc2c1ccc1c(C)ccnc12.O | 9.2%
Cc1ccc(N(CC(=O)NC(C)(C)C)C(=O)CNC(=O)c2cccs2)c(C)c1 | 9.15%
CCOc1cccc(-c2nc3cc(C)ccc3o2)c1 | 22.2%
CC(=O)Nc1cccc(NC(=O)c2c(-c3c(Cl)cccc3Cl)noc2C)c1 | -14.9%
Cc1ccn2c(NC3CCCCC3)c(C)nc2c1 | -20%
Nc1nonc1C(=O)NCCNS(=O)(=O)c1ccc(Br)cc1 | -28%
CCCCCN(C(=O)CCC(=O)OCc1ccccc1F)c1c(N)n(CCCC)c(=O)[nH]c1=O | 12.9%
CCOc1ccc(C2c3cc(OC)c(OC)cc3CC(=O)N2c2ccccc2)cc1 (centres unmarked) | -26.5%
COc1ccc(/C=N/NC(=O)CNC(=O)c2ccc(S(=O)(=O)N3CCOCC3)cc2)cc1OC | -9.23%
CC(NC(=O)c1ccccc1O)c1ccccc1 (centres unmarked) | -21%
CCn1cnc2cc(NCc3cccs3)ccc21 | -15.9%
CN(c1ccc(C(=O)Nc2ccc(Cl)cn2)cc1)S(=O)(=O)c1ccccc1 | -28.2%
Cc1ccccc1/C=C1\OC(=O)c2ccccc21 | -4.37%
N/C(=N\OC(=O)Cc1cccs1)c1ccc(Cl)cc1 | 9.19%
O=C(Nc1nc2ccc([N+](=O)[O-])cc2s1)c1ccco1 | 39.5%
O=C(COc1ccc([N+](=O)[O-])cc1)NNC(=O)c1cccs1 | -11.6%
COCCN(C(=O)COC(=O)c1cccnc1Cl)c1c(N)n(Cc2ccccc2)c(=O)[nH]c1=O | 10.2%
O=C(Nc1ccccc1F)c1cnccn1 | 23.1%
Cc1ccccc1/C=C/c1nc2ccccc2c(=O)n1Cc1ccccc1 | -3.27%
O=c1c(-c2cc3ccccc3o2)[n+]([O-])c2ccccc2n1OCc1ccccn1 | -15.4%
CCCc1nnc(NC(=O)CCC(=O)N2CCN(Cc3ccc(OC)c(F)c3)CC2)s1 | -28.3%
O=C(c1ccccc1)N1CCN(c2ncccn2)CC1 | 17.6%

SMILES | hERG current change (%, negative = inhibition) at 10uM
Cc1nc2cc(CO)ccc2s1 | 9.23%
CCc1ccc(C)c(OC(=O)c2cncc(Br)c2)c1 | 14.9%
Cn1c(=S)n(CCC(=O)O)c2ccccc21 | 20.2%
Cc1cccc(C(=O)NNC(=O)CCC(=O)Nc2cccc(Cl)c2C)c1 | 9.03%
COCCNC(=O)C(c1ccc(O)cc1)N(Cc1cccs1)C(=O)CCC(=O)Nc1ccccn1 (centres unmarked) | 19.9%
CCCC(=O)Nc1ccc2c(c1)C(=O)NC2=O | 6.93%
O=C(COC(=O)c1ccc[nH]c1=O)NCCc1ccc(Cl)cc1Cl | 6.66%
COC(=O)C1(S(=O)(=O)c2cc(Br)cc3c2N(C(C)=O)CC3)CC1 | 1.59%
COC(=O)C1CC(=O)N(c2ccc(OCc3ccccc3Cl)cc2)C1 (centres unmarked) | -19.2%
Fc1ccc(OCCOCCOc2cccc3[nH]ccc23)cc1 | -25.4%
Cc1ccc(S(=O)(=O)N2CCOCC2)cc1NC(=O)CSc1nnnn1C | 15.9%
Cc1cc(/C=C2/NC(=O)NC2=O)c(C)n1-c1ccncc1 | -3.2%
CCCCOc1ccc(-c2nnn(CC(=O)Nc3ncc(CC(=O)OCC)s3)n2)cc1 | 12.4%
O=C(O)c1ccc(-n2cccn2)c([N+](=O)[O-])c1 | 16.2%
O=C(O)c1cccc(S(=O)(=O)N2Cc3ccccc3C2)c1 | -0.612%
COC(=O)C1=C(c2cc3ccccc3s2)C[C@@H]2CC[C@H]1N2C(=O)NCCO | 2.66%
CCOC(=O)CNC(=O)Nc1ccccc1C(=O)OC | 15.1%
C[C@H](NC(=O)c1ccco1)C(=O)Nc1ccc2c(c1)OCO2 | 30.7%
O=C(c1ccc(F)cc1)N1CCCN(c2nc(-c3ccccc3)ns2)CC1 | -46.1%
Cc1cccn2c(=O)c3cc(C(=O)NCCN4CCOCC4)c(=N)n(Cc4cccnc4)c3nc12 | -18.4%
